The source gives no read counts; variants with many changes may rest on few reads.
B1: CPEB3 Ribozyme (parent)
chain: UAACAGGGGGCCACAGCAGAAGCGUUCACGUCGCAGCCCCUGUCAGAUUCUGGUGAAUCUGCGAAUUCUGCUGUAUAUCUC

Variants of: B1
Experiment: self-cleavage, relative activity (ratio to wild type); higher = more cleavage; in vitro, sequencing
Outline: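 CPEB3 self-cleaving ribozyme mutant libraries were made by rounds of error-prone PCR, barcoded, and transcribed in vitro with T7 RNA polymerase for 5 hours at 37°C. Cleavage occurred during transcription and a 15 min DNase I step before EDTA stop. RNAs were reverse transcribed with template switching and Illumina-sequenced, with DNA sequencing mapping barcodes to variants. Relative activity is the variant's cleaved/total read fraction divided by wild type's (minimum 5 reads), averaged across three batches.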

**Q.** With UAGCAGGGGGCCACAGCAGAAGCGUUCAUGUCGCAGCCCCUGUCAGAUUCUGGUGGAUCUGCGAAUUCUGCUGUAUAUCUC [A3G C29U A56G] as the variant, how does the self-cleavage read?
**A.** The self-cleavage was 0.14.

**Q.** For UAGCAGGGGGCCACAGCAGAAGCGUUCAUGUCGCAGCCCCUGUCAUAUUCUGGUGAAUCUGUGGAUUCUGCUGUAUAUCUC [A3G C29U G46U C62U A64G], which self-cleavage is on record?
**A.** The self-cleavage was 0.07.

**Q.** For UAGCAGGGGGCCACAGCAGAAGCGUUCAUGUCGCAGCCCCUGUCAGAUUCUGGUAAAUCUGCGAAUUCUGCUGUAUUUCUC [A3G C29U G55A A77U], which self-cleavage is on record?
**A.** The self-cleavage was 0.27.

**Q.** With UAGCAGGGGGCCACAGCAGAAGCGUUCAUGACGCAGCCCCUGUCAGACUCUGGUGAAUCUGCGAACUCUGCUGUAUAUCUC [A3G C29U U31A U48C U66C] as the variant, how does the self-cleavage read?
**A.** Its self-cleavage is 0.29.

**Q.** Which self-cleavage does the source give for UAGCAGGGGGCCACAGCAGAAGCGUUCAUGACGCAGCCCCUGUCAGAUUCUGGUGAAUCUGCGAAUUCUGCUGUAUACCUC [A3G C29U U31A U78C] here?
**A.** The self-cleavage was 0.43.

**Q.** With UAGCAGGGGGCCACAGCAGAAGCGUUCACGUAGCAGCCCCUGUCGGAUUCUGGUGAAUCUGCGAAUUCUGCUGUAUAUCUC [A3G C32A A45G] as the variant, how does the self-cleavage read?
**A.** The self-cleavage was 0.2.

**Q.** For UAGCAGGGGGCCACAGCAGAAGCGUUCACGUAGCAGCGCCUGUCAGAUUCUGGUGAAUCUGCGAAUACUGCUGUAUAUCUC [A3G C32A C38G U67A], which self-cleavage is on record?
**A.** The self-cleavage was 0.29.

**Q.** With UAGCAGGGGGCCACAGCAGAAGCGUUCACGUGGCAGCCCCUGUCAGAUACUGGUGAGUAUGCGAAUUCUGCUGUAUAUCUC [A3G C32G U49A A57G C59A] as the variant, how does the self-cleavage read?
**A.** Its self-cleavage is 0.25.

**Q.** Which self-cleavage does the source give for UAGCAGGGGGCCACAGCAGAAGCGUUCACGUGGCAGCCCCUGUCAGAUUCUGGCGAAUAUGCGAAUUCUGCUGUAUAUCUC [A3G C32G U54C C59A] here?
**A.** The self-cleavage was 0.16.

**Q.** Which self-cleavage does the source give for UAGCAGGGGGCCACAGCAGAAGCGUUCACGUUGCUGCCUCUGUCAGACUCUGGUGAAUCUGCGAAUUCAGCUGUAUAUCUC [A3G C32U A35U C39U U48C U69A] here?
**A.** Its self-cleavage is 0.09.

**Q.** With UAGCAGGGGGCCACAGCAGAAGCGUUCACGUUGCAGUCCCUGUCAGAUUCUGGAGGAUCUGCGAAUUCCGCUGUAUAUCUC [A3G C32U C37U U54A A56G U69C] as the variant, how does the self-cleavage read?
**A.** The self-cleavage was 0.11.

**Q.** For UAGCAGGGGGCCACAGCAGAAGCGUUCACGUUGCAGCCCCUGUCAGAUACUGGUGAACCUGCGAAUUCUGCUGUAUAUCUC [A3G C32U U49A U58C], which self-cleavage is on record?
**A.** Its self-cleavage is 0.15.

**Q.** For UAGCAGGGGGCCACAGCAGAAGCGUUCACGUUGCAGCCCCUGUCAGAUUCUGGUGAAUCUGCGAAUUCUGCUGUAUAUCAC [A3G C32U U80A], which self-cleavage is on record?
**A.** The self-cleavage was 0.7.

**Q.** For UAGCAGGGGGCCACAGCAGAAGCGUUCACGUCGAAGCCCCUGUCAGAUUCUGGUGAAUCAGCGAAUCCUGCUGUAUAUCUC [A3G C34A U60A U67C], which self-cleavage is on record?
**A.** Its self-cleavage is 0.16.

**Q.** With UAGCAGGGGGCCACAGCAGAAGCGUUCACGUCGGAGCCCCUGUCAGAUUCUGGUGAAUCUGCGAGUUCUGCUGUAUAUCUC [A3G C34G A65G] as the variant, how does the self-cleavage read?
**A.** The self-cleavage was 0.32.

**Q.** Which self-cleavage does the source give for UAGCAGGGGGCCACAGCAGAAGCGUUCACGUCGGAGCCCCUGUCAGAUUCUGGUUAAUCUGCGAAUUCUGCUGUAUAUCUC [A3G C34G G55U] here?
**A.** Its self-cleavage is 0.47.

**Q.** Which self-cleavage does the source give for UAGCAGGGGGCCACAGCAGAAGCGUUCACGUCGGAGCCCCUGUCAGAUCCUGGUGAAUCCGCGAAUUCUGCUGUACAUCUC [A3G C34G U49C U60C U76C] here?
**A.** Its self-cleavage is 0.07.

**Q.** With UAGCAGGGGGCCACAGCAGAAGCGUUCACGUCGUAGCCCCUGUCAGAUUCUGGUGAAUCUGCGAAUUCUGCUGUAUUUCUC [A3G C34U A77U] as the variant, how does the self-cleavage read?
**A.** The self-cleavage was 0.39.

**Q.** Which self-cleavage does the source give for UAGCAGGGGGCCACAGCAGAAGCGUUCACGUCGUAGCCCCUGUCAGAUUCUGGUAAAUCUGCGAAUUCUGCUGUAUAUCUC [A3G C34U G55A] here?
**A.** The self-cleavage was 0.28.

**Q.** With UAGCAGGGGGCCACAGCAGAAGCGUUCACGUCGCAGACCCAGUCAGAUUCAGGUGAAUCUGCGAAUUCUGCCGUAUAUCUC [A3G C37A U41A U51A U72C] as the variant, how does the self-cleavage read?
**A.** The self-cleavage was 0.07.

**Q.** Which self-cleavage does the source give for UAGCAGGGGGCCACAGCAGAAGCGUUCACGUCGCAGGCCCUGUCAGAUUCUGGUGAAUCUGCGAAUUAUGCUGUAUAUCCC [A3G C37G C68A U80C] here?
**A.** Its self-cleavage is 0.1.

**Q.** For UAGCAGGGGGCCACAGCAGAAGCGUUCACGUCGCAGUCCCUGUCAGAUUCUGGUGAAUCUGCGAAUCCUGCUGUAUAACUC [A3G C37U U67C U78A], which self-cleavage is on record?
**A.** The self-cleavage was 0.56.

**Q.** Which self-cleavage does the source give for UAGCAGGGGGCCACAGCAGAAGCGUUCACGUCGCAGCACCUGUCAGAUUCUGGUGAGUCUGCGAAUUCUGCUGUAUACCCC [A3G C38A A57G U78C U80C] here?
**A.** The self-cleavage was 0.26.

**Q.** Which self-cleavage does the source give for UAGCAGGGGGCCACAGCAGAAGCGUUCACGUCGCAGCACCUGUCAGAUAAUGGUGAAUCUGCGAAUUCAGCUGUAUAUCUC [A3G C38A U49A C50A U69A] here?
**A.** Its self-cleavage is 0.16.

**Q.** With UAGCAGGGGGCCACAGCAGAAGCGUUCACGUCGCAGCUCCUGUCAGAUUCUGGUGAGUCUGCGAAUCCUGCUGUAUAUCUC [A3G C38U A57G U67C] as the variant, how does the self-cleavage read?
**A.** The self-cleavage was 0.06.

**Q.** For UAGCAGGGGGCCACAGCAGAAGCGUUCACGUCGCAGCUCCUGUCAGAUUCUGGCGAAUCUGCGAAUUCUGCUGUAUACUUC [A3G C38U U54C U78C C79U], which self-cleavage is on record?
**A.** Its self-cleavage is 0.89.

**Q.** For UAGCAGGGGGCCACAGCAGAAGCGUUCACGUCGCAGCCACUGUCAGAUUCUGGUGAGUCUGCGAAUUCUGCCGUAUAUCUC [A3G C39A A57G U72C], which self-cleavage is on record?
**A.** Its self-cleavage is 0.18.

**Q.** For UAGCAGGGGGCCACAGCAGAAGCGUUCACGUCGCAGCCACGGUCAGAUUCUGGUGAAUCCGCGAAUUCUGCUGUAUAUCUC [A3G C39A U41G U60C], which self-cleavage is on record?
**A.** The self-cleavage was 0.08.

**Q.** For UAGCAGGGGGCCACAGCAGAAGCGUUCACGUCGCAGCCGCUGUCAGAUUCAGGUGAAUCUGCGAAUCCUGCUGUAUAUCUC [A3G C39G U51A U67C], which self-cleavage is on record?
**A.** The self-cleavage was 0.08.

**Q.** Which self-cleavage does the source give for UAGCAGGGGGCCACAGCAGAAGCGUUCACGUCGCAGCCUCUGUCGGAUUCUGGUGAAUCUGCGAAUUCUGCUGUAUAUCUC [A3G C39U A45G] here?
**A.** Its self-cleavage is 0.56.

**Q.** With UAGCAGGGGGCCACAGCAGAAGCGUUCACGUCGCAGCCUCUGUCAGGUUCUGGUGAAUCUGCGAAUUCUGCUGUAUAUCCC [A3G C39U A47G U80C] as the variant, how does the self-cleavage read?
**A.** Its self-cleavage is 0.54.

**Q.** Which self-cleavage does the source give for UAGCAGGGGGCCACAGCAGAAGCGUUCACGUCGCAGCCUCUGUCAGAUUCUGGUGAGUCUGCGAAUUCUGCUGUAUAUCUC [A3G C39U A57G] here?
**A.** Its self-cleavage is 0.5.

**Q.** With UAGCAGGGGGCCACAGCAGAAGCGUUCACGUCGCAGCCUCCGUCAGAUUCUGGUGAUUCUGCGAAUUCUGCUGUAUAUCUC [A3G C39U U41C A57U] as the variant, how does the self-cleavage read?
**A.** Its self-cleavage is 0.33.

**Q.** Which self-cleavage does the source give for UAGCAGGGGGCCACAGCAGAAGCGUUCACGUCGCAGCCCAUGUCAGACUCUGGUGAAUCUGCGAAUCCUGCUGUAUAUCUC [A3G C40A U48C U67C] here?
**A.** Its self-cleavage is 0.21.
